The full ranking holds about 18,000 sequences; the median of “TetR repression strength (sort-seq, GFP reporter)” is about 0.23, and the highest 2% start at about 0.68. Some of the results follow.
biological target: TetR (class B, Tn10) (UniProt P04483); assay: TetR repression strength (sort-seq, GFP reporter) (relative to tetO2 = 1); higher = stronger repression; details: E. coli
In short: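 Repression strength was calculated by subtracting the read-weighted mean bin from the top bin index plus one and dividing by the unaltered operator's value. The plasmid library was low-copy in E. coli SIG10-MAX, with eight randomized operator positions between a constitutive promoter and sfGFP and constitutive TetR. Cultures grew 5 h at 37 °C in LB containing 50 µg/mL chloramphenicol before 10^6 cells were sorted by FACS into 13 fluorescence bins, each sequenced on Illumina. Three independent transformations were averaged for members having ≥30 reads in all replicates and a CV ≤0.5.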

UniProt P04483, sequence (P04483 whole entry): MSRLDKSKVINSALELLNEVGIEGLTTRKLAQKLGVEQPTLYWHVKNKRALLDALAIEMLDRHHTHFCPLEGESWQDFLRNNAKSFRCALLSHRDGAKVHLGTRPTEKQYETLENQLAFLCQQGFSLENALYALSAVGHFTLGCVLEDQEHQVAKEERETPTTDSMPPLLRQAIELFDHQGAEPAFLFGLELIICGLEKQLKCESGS

Row | Sequence | TetR repression strength
1 | TCCCTGCGAGTGGCGGAGA | 0.241
2 | TCCCTTTGAGTCGCGGAGA | 0.415
3 | TCCCGTTGAGTGCTAGAGA | 0.219
4 | TCCCGAGTAGTGTAGGAGA | 0.201
5 | TCCCCGAGAGTGTTGGAGA | 0.156
6 | TCCCTGCCAGTTATGGAGA | 0.465
7 | TCCCAAGCAGTGCAGGAGA | 0.242
8 | TCCCCGGAAGTGGCAGAGA | 0.185
9 | TCCCACGAAGTTAAGGAGA | 0.448
10 | TCCCCATGAGTTACTGAGA | 0.212
11 | TCCCAACAAGTGAATGAGA | 0.336
12 | TCCCTCGCAGTTGATGAGA | 0.385
13 | TCCCAGTGAGTTGAGGAGA | 0.179
14 | TCCCATGAAGTTGCCGAGA | 0.233
15 | TCCCGAGAAGTGCCGGAGA | 0.205
16 | TCCCCGGGAGTCGGTGAGA | 0.171
17 | TCCCGGGCAGTGGGGGAGA | 0.347
18 | TCCCCTTAAGTGGAGGAGA | 0.593
19 | TCCCTCTGAGTGTAAGAGA | 0.23
20 | TCCCCTGTAGTCTTTGAGA | 0.256
21 | TCCCTATGAGTGGGCGAGA | 0.164
22 | TCCCATTGAGTCGCAGAGA | 0.151
23 | TCCCCGAGAGTGTGCGAGA | 0.473
24 | TCCCGCTGAGTAGGGGAGA | 0.269
25 | TCCCATCCAGTGGTGGAGA | 0.0246
26 | TCCCAGCAAGTCGAGGAGA | 0.446

Row | Sequence | TetR repression strength
27 | TCCCACTCAGTTAGAGAGA | 0.677
28 | TCCCTTGCAGTCCTCGAGA | 0.543
29 | TCCCGATCAGTCATGGAGA | 0.268
30 | TCCCGGCGAGTGATAGAGA | 0.484
31 | TCCCTTGCAGTCCGTGAGA | 0.301
32 | TCCCAGAAAGTAGGCGAGA | 0.0682
33 | TCCCCCTAAGTGAGGGAGA | 0.167
34 | TCCCTAAGAGTGATGGAGA | 0.243
35 | TCCCAGTCAGTGCATGAGA | 0.177
36 | TCCCTTCAAGTGCCTGAGA | 0.503
37 | TCCCGCACAGTAGTTGAGA | 0.043
38 | TCCCTGATAGTACGGGAGA | 0.107
39 | TCCCTAGCAGTAAGCGAGA | 0.226
40 | TCCCTATCAGTGTCAGAGA | 0.958
41 | TCCCCGCGAGTGTGTGAGA | 0.206
42 | TCCCGCGGAGTTGTAGAGA | 0.106
43 | TCCCCTGCAGTCGTAGAGA | 0.346
44 | TCCCAACTAGTGTTGGAGA | 0.309
45 | TCCCATTGAGTAATTGAGA | 0.104
46 | TCCCCTACAGTCCGCGAGA | 0.527
47 | TCCCACTCAGTAGATGAGA | 0.343
48 | TCCCAGCGAGTTGTTGAGA | 0.177
49 | TCCCACATAGTTGTGGAGA | 0.178
50 | TCCCATGCAGTGGAGGAGA | 0.254
51 | TCCCCCGGAGTTAGAGAGA | 0.255
52 | TCCCTCAGAGTCACAGAGA | 0.151

Row | Sequence | TetR repression strength
53 | TCCCCAGGAGTGTCAGAGA | 0.26
54 | TCCCCTAAAGTTCGCGAGA | 0.486
55 | TCCCTATGAGTTGGGGAGA | 0.218
56 | TCCCCTCGAGTTCGAGAGA | 0.323
57 | TCCCAAGAAGTTGAAGAGA | 0.154
58 | TCCCCCGAAGTGTGGGAGA | 0.219
59 | TCCCATCTAGTATAGGAGA | 0.242
60 | TCCCTGAGAGTAGTTGAGA | 0.0923
61 | TCCCGAAGAGTTCGTGAGA | 0.224
62 | TCCCACGCAGTTCTTGAGA | 0.219
63 | TCCCAATTAGTGGTAGAGA | 0.326
64 | TCCCAATTAGTGAACGAGA | 0.332
65 | TCCCGAGTAGTATCTGAGA | 0.219
66 | TCCCGGACAGTCTAGGAGA | 0.201
67 | TCCCGTCGAGTAGAGGAGA | 0.331
68 | TCCCTCAGAGTAAGGGAGA | 0.267
69 | TCCCCCAGAGTGCATGAGA | 0.527
70 | TCCCCTGAAGTTTGGGAGA | 0.218
71 | TCCCCACCAGTAGGGGAGA | 0.215
72 | TCCCAGATAGTCTGGGAGA | 0.104
73 | TCCCACTGAGTGGGCGAGA | 0.222
74 | TCCCATACAGTGAGTGAGA | 0.176
75 | TCCCCGAAAGTCGTGGAGA | 0.247
76 | TCCCAGAGAGTCGTCGAGA | 0.104
77 | TCCCAATAAGTATTTGAGA | 0.281
78 | TCCCAAAAAGTGTAGGAGA | 0.263

Row | Sequence | TetR repression strength
79 | TCCCTACTAGTCCGCGAGA | 0.45
80 | TCCCGCCGAGTCTGGGAGA | 0.0453
81 | TCCCCGAGAGTGCTTGAGA | 0.132
82 | TCCCGGACAGTATATGAGA | 0.304
83 | TCCCACCAAGTGATAGAGA | 0.531
84 | TCCCCTTCAGTCCGTGAGA | 0.338
85 | TCCCTTGCAGTCTGTGAGA | 0.619
86 | TCCCTAGAAGTATTCGAGA | 0.0484
87 | TCCCACACAGTGTCCGAGA | 0.251
88 | TCCCGTATAGTTCTTGAGA | 0.207
89 | TCCCCGACAGTCTGGGAGA | 0.134
90 | TCCCAGGGAGTATGCGAGA | 0.328
91 | TCCCGCTGAGTGTGCGAGA | 0.00864
92 | TCCCGTCGAGTCTGGGAGA | 0.226
93 | TCCCTCACAGTTAGCGAGA | 0.264
94 | TCCCGTACAGTGGATGAGA | 0.32
95 | TCCCGTCCAGTGATGGAGA | 0.324
96 | TCCCGTGGAGTGCGGGAGA | 0.189
97 | TCCCCGCCAGTGCACGAGA | 0.186
98 | TCCCCAGAAGTATACGAGA | 0.538
99 | TCCCATATAGTTTCAGAGA | 0.0524
100 | TCCCCATCAGTGTTCGAGA | 0.202
101 | TCCCTCTTAGTGCGCGAGA | 0.29
102 | TCCCGACTAGTCATGGAGA | 0.128
